Reference: the supplement of paper PMC3334620
In all, about 33,000 sequences were measured (“E-score (-0.5 to 0.5)”: median about -0.012, highest 2% from about 0.29 on). This is one part of the list.

Target: T1, Ybr033w (UniProt P38073)
T1 sequence: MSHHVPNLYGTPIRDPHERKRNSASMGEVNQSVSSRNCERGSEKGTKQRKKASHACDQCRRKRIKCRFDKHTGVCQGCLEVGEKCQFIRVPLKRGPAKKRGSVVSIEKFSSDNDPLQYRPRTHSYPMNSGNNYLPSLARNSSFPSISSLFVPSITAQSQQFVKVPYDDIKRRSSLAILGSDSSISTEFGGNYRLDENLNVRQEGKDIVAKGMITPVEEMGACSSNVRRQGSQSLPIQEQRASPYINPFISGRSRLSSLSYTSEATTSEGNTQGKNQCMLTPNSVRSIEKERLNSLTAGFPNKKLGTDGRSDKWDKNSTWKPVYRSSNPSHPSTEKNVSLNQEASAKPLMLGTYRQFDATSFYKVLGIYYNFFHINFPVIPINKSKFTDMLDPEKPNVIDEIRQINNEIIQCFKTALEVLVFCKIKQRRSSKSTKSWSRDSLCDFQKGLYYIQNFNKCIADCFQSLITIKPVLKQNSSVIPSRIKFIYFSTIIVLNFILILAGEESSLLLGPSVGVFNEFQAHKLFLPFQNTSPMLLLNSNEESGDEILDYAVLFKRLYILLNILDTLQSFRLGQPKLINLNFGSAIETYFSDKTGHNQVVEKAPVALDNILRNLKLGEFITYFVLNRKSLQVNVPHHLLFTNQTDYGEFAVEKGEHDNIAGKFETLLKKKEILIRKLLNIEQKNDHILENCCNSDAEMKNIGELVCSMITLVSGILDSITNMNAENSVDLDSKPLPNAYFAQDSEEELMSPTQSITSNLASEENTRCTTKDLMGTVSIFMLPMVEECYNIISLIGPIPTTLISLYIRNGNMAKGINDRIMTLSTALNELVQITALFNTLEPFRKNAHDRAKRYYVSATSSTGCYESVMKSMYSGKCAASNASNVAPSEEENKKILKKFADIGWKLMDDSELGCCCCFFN
Assay: PBM E-score (8-mer binding enrichment) (E-score (-0.5 to 0.5)); higher = stronger / more preferred TF binding; most listed sequences are background and not binding sites
Conditions: protein concentration: 200 nM; construct: GST-full length
Experimental: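 Universal 'all 10-mer' protein binding microarrays (Agilent AMADID 015681) probed with GST-tagged S. cerevisiae TFs (full-length or DBD) made by in vitro transcription/translation (PURExpress), about 100-200 nM. Bound TF was detected with fluorescent anti-GST. Each ungapped 8-mer (which stands for itself and its reverse complement) is scored by the PBM enrichment score (E-score), a modified Wilcoxon-Mann-Whitney statistic from -0.5 to +0.5, computed with the Universal PBM Analysis Suite. Scale: above 0.35 generally sequence-specific binding.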

Row | Sequence | PBM E-score
1 | ATTGGCTC | 0.038
2 | ACGCCCTC | -0.122
3 | ATCTATGG | -0.223
4 | AATGGGTG | 0.0974
5 | GGGGAGTA | -0.101
6 | ATACTTGG | 0.0407
7 | ACGAGACA | 0.0368
8 | AAAGGCCG | -0.0673
9 | GTGTCAAA | 0.118
10 | ATTCACTC | 0.104
11 | AAAACCAA | 0.0921
12 | CCTACGTC | -0.0878
13 | ATGAATTA | 0.263
14 | CATTAACC | 0.136
15 | ATCAGTCG | 0.122
16 | ACTGTTCT | 0.114
17 | CATTCCCG | -0.0262
18 | CAGTACAA | -0.0931
19 | AAAAGCTT | -0.0171
20 | ACATGTCC | 0.0496
21 | AATCTCAC | 0.0647
22 | GTACGGGA | -0.0923
23 | ATTTCAAG | 0.187
24 | GGCAGTAC | -0.188
25 | CCATTGGG | -0.225

Row | Sequence | PBM E-score
26 | GCGCATCC | -0.0235
27 | GTATACAA | 0.203
28 | GCCGGTAC | -0.201
29 | AAGAGAGA | 0.00326
30 | CATCCTCA | -0.0905
31 | AATTCCAG | 0.0825
32 | AATTTAAG | 0.211
33 | CAGTGATA | 0.0511
34 | CGCTGGGA | -0.213
35 | AAATATCG | 0.247
36 | TCTGTAAA | 0.0762
37 | ACCAAGGT | -0.034
38 | ACCATCCT | 0.043
39 | CACCCCAC | -0.0862
40 | AGTGTTGG | -0.0403
41 | TAGGAAGA | 0.152
42 | CGAGTACG | -0.0987
43 | CAACTACG | 0.214
44 | GAGGCGCC | -0.209
45 | CGTTGTTA | 0.0537
46 | TATGCGGA | 0.0987
47 | ACGGATTC | 0.114
48 | CGCACGCA | -0.0877
49 | AGCTCGGA | -0.249
50 | GTATTTCA | 0.235

Row | Sequence | PBM E-score
51 | CAGGGACA | -0.0495
52 | GCTGGCCA | -0.183
53 | ACAGACAA | 0.259
54 | CCTACTTA | 0.0574
55 | AAGTCTCT | 0.0317
56 | AGACGGGC | -0.141
57 | CAATGTGA | 0.218
58 | GAGCTCAC | -0.27
59 | ATCTACAG | 0.128
60 | ATCGGTAA | 0.171
61 | AGGCACAG | -0.0663
62 | AGCCTTGA | -0.0767
63 | CTAGGGTC | -0.177
64 | CACGGGCG | -0.157
65 | AGTTGCTA | 0.253
66 | CAGACACA | -0.0429
67 | CGAGGCAA | -0.0952
68 | CGAATAAA | 0.145
69 | TCACTCGA | 0.0276
70 | AATCAGCT | 0.185
71 | CAAACCCC | -0.2
72 | CGTGACGC | -0.0223
73 | AACAGCGT | 0.042
74 | TGCTAGAA | 0.0898
75 | CTGAGGCC | -0.24

Row | Sequence | PBM E-score
76 | GTCTCCTA | -0.236
77 | GATAATGC | 0.115
78 | ATTAACTG | 0.333
79 | GATCGGAA | 0.0275
80 | GAATAAGC | 0.189
81 | ACAAAGAA | 0.185
82 | GTGGGTCA | -0.155
83 | AAGGCATA | 0.0942
84 | AAGGCAGT | -0.0187
85 | AAGCCGTA | 0.125
86 | AGACCGAA | 0.0566
87 | GAATAGAA | 0.278
88 | CTGCTAAG | -0.132
89 | GATATCGC | 0.119
90 | ACGCATGG | -0.123
91 | ACGTACGG | -0.153
92 | CGAGGGCA | -0.0861
93 | GCACACGA | -0.124
94 | ATCGCTAA | 0.0959
95 | GGAGGCAC | -0.224
96 | CACCTGTA | -0.0102
97 | ACTTACCG | 0.137
98 | ATACAAAG | 0.298
99 | ACACAACG | 0.0896
100 | ATCGGTGC | -0.149

Row | Sequence | PBM E-score
101 | AATCATTC | 0.147
102 | ACTAGACC | -0.0433
103 | AACTCGCC | -0.00919
104 | CTGCATTC | 0.13
105 | AAGTCGTC | -0.099
106 | CAACACAC | -0.0133
107 | GACAGAGC | -0.0625
108 | AGAGGGTC | -0.246
109 | AGGGAAAA | 0.296
110 | AAAAAGGG | -0.0938
111 | GCTACCCA | -0.222
112 | AACTGGGA | 0.00134
113 | AGTGTAGA | 0.0489
114 | TACCCCTA | -0.107
115 | GGTCGGAC | -0.19
116 | CGCAAGCG | -0.0738
117 | AGCCGTTC | -0.222
118 | ATATCAAA | 0.241
119 | TAGATCTA | 0.19
120 | CCTCAGGA | -0.0719
121 | ATCTAGAA | 0.214
122 | CCTTCTGA | -0.0544
123 | ACTCTTTC | -0.0908
124 | ACTGGGTG | -0.111
125 | GCTCGCAA | 0.0873

Row | Sequence | PBM E-score
126 | AAAACCCA | 0.162
127 | CGCAGGGA | -0.202
128 | CAGGCCTG | -0.162
129 | ACTCGATG | 0.166
130 | ATAAGCCC | -0.102
131 | GGATACGA | -0.0493
132 | CTTCGTAA | 0.0295
133 | CCTAATAA | -0.0059
134 | CATCTAGG | -0.154
135 | CCCCAAAA | -0.0727
136 | ATATACGG | -0.0113
137 | ATGATAAA | 0.238
138 | ACTGCAGG | -0.127
139 | GGGTTCCA | -0.178
140 | CTTCAAGC | -0.121
141 | GTGCTATA | 0.111
142 | GAGCCCTC | -0.263
143 | CAGAGTTA | 0.029
144 | CCACCCGA | -0.0408
145 | ACGATTGA | 0.0167
146 | CGACCGTA | -0.299
147 | GGTATACA | 0.00479
148 | CCGGCCCG | -0.296
149 | ATAGGAAC | 0.149
150 | ATACCTTG | 0.0969

Row | Sequence | PBM E-score
151 | AAACAGAG | 0.065
152 | AGGCATAT | -0.0364
153 | CATTTGCG | 0.0935
154 | ATCCCTCA | -0.0498
155 | AATACTCT | 0.298
156 | CTAGCCAA | 0.217
157 | AGTGCGAA | -0.0815
158 | CGTACCCA | -0.126
159 | AGAATCTC | -0.0698
160 | TACGTTAA | 0.0894
161 | GTTGGAAA | 0.0196
162 | ATTACGGC | 0.0786
163 | GCTCATTA | 0.104
164 | ATAATTTA | 0.338
165 | AGAAGACT | -0.125
166 | ACGTCCAG | -0.138
167 | GCCGGCAA | -0.0249
168 | ACCTAGGA | 0.0448
169 | CTATTGTA | 0.249
170 | AAAGGGAG | -0.364
171 | CGCTTGTA | -0.0741
172 | GAGTCACC | -0.213
173 | AACTTACT | -0.0103
174 | GGAATGCC | 0.0217
175 | ACGCCAGG | -0.207

Row | Sequence | PBM E-score
176 | CAGCTAAC | -0.157
177 | CCGATGTC | -0.0513
178 | TCATCTCA | 0.105
179 | ATATCTTA | 0.281
180 | ACACTGGG | -0.161
181 | AATAGGTA | 0.193
182 | AAGTTCTA | 0.198
183 | CGACCTTA | -0.0779
184 | CGGTGGCA | -0.352
185 | TTATTGAA | 0.114
186 | AAAACCAT | 0.18
187 | AGATGTGC | 0.0868
188 | AGCACCAG | -0.0513
189 | TAACGAGA | 0.0739
190 | GCACCACA | -0.162
191 | CCGCCTCC | -0.343
192 | CCCATGGA | -0.0602
193 | CATTGAAA | 0.29
194 | ATTCATGG | -0.005
195 | AGCTGTAC | -0.197
196 | GCCGCTAA | -0.00387
197 | CGCCAAGA | -0.288
198 | ATACATGA | 0.208
199 | CAATTCTA | 0.114
200 | ACCTGCAA | -0.0757

Row | Sequence | PBM E-score
201 | GATCTGCA | -0.215
202 | TAATTTAA | 0.343
203 | AGAACCAT | 0.148
204 | CATAGTCC | -0.0337
205 | TCTTCTAA | 0.17
206 | ACGCAAGC | 0.0685
207 | ATGATCAC | 0.071
208 | AAACCTAC | 0.141
209 | ACCCGCAG | 0.076
210 | CACCGTGA | -0.183
211 | ACGCCGCT | -0.167
212 | GGTCATTA | -0.0229
213 | AACATATT | 0.285
214 | AAGCCGCC | -0.223
215 | AGAGTACC | 0.062
216 | ACTAAGGG | -0.121
217 | CTTCTCTA | -0.0199
218 | AATACCTC | 0.132
219 | AGCAGTTA | 0.0896
